Values joined by “and” are separate entries in the source; they are usually repeats but may differ in a detail not shown here. Equal values may be shown once. Screen size: about 16,000 compounds; about 260 (1.6%) were called active. The shares of active, inactive and inconclusive entries below differ from those in the screen. The call rests on the fitted dose curve; in most records, active means well fitted inhibition curve with a large enough effect; inconclusive means small, poorly fitted or top-dose-only effect; inactive means no such curve, though single readings can be large or run the other way. Potencies of inconclusive entries are doubtful fits and often do not repeat.
Target: Rap guanine nucleotide exchange factor 4 (Homo sapiens) (UniProt Q8WZA2)
Chain of UniProt Q8WZA2 (Q8WZA2 whole entry, looked up): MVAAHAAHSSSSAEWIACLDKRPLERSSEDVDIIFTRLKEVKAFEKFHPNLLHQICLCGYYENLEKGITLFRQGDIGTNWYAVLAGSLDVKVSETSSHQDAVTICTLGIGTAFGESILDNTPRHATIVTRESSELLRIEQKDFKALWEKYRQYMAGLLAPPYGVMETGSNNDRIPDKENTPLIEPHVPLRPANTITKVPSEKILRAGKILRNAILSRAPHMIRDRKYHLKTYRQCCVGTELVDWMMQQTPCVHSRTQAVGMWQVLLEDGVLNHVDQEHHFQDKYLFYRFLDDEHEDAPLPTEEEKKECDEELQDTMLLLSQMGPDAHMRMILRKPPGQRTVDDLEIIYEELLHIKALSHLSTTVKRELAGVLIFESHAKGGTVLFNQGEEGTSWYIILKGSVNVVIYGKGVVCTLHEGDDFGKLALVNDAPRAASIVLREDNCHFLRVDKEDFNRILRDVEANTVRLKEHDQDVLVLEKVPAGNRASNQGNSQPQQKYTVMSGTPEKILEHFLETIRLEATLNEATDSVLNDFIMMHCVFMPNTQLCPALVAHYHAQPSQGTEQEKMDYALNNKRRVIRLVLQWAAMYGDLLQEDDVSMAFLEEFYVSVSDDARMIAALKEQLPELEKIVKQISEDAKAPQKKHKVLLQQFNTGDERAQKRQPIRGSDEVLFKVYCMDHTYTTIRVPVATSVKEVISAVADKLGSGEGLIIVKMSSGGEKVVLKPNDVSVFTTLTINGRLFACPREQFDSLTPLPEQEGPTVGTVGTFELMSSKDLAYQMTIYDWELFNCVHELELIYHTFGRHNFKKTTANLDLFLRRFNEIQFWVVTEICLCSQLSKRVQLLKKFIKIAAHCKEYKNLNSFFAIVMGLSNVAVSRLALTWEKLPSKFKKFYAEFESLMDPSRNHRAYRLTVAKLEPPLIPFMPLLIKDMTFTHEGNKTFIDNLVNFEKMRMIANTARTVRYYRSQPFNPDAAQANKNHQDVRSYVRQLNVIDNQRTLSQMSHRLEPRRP
Test: Validation qHTS for antagonist of cAMP-regulated guanine nucleotide exchange factor 4 (EPAC2); further: nearly all actives have a fitted effect of over 40% in size
Conditions: EPAC2 Rap1B BODIPY-GDP exchange, fluorescence; series mostly up to 112 µM
How it was run: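 Normalized against a 6.5 mM cAMP agonist control, compounds were tested on 100 nM EPAC2 exchanging Rap1B-bound BODIPY-GDP (250 nM) for 50 uM GDP. Fluorescence drop (ex 480, em 540 nm) was tracked at room temperature over 30 min at 5-min intervals.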
Potency means the concentration at half of the fitted maximal effect; tags describe the fitted curve by direction and shape.

| Structure (SMILES) | Potency |
| --- | --- |
| CCCCCCCCCCCCCCC(C(=O)O)C(O)(CC(=O)OC)C(=O)O (configuration not stated) | inconclusive: 10 µM [inhibitor, full curve] |
| Oc1ccc(/C=C/c2cc(O)cc(O)c2)cc1 | inconclusive: 28.2 µM [inhibitor, partial curve, poor fit] |
| O=C(c1cccc(F)c1)N1CCC[C@@]2(CCN(c3ccncc3)C2)C1 | inconclusive: 89.1 µM [inhibitor, partial curve, poor fit] |
| Brc1ccc(CN2CC[C@H]3C=CCc4cccc(c43)C2)cc1 | inconclusive: 10 µM [inhibitor, partial curve, poor fit] |
| Cc1ccc(CN2CCCOCCS2(=O)=O)cc1 | inactive |
| NC(=O)c1ccc2[nH]ccc2c1 | inconclusive: 39.8 µM [inhibitor, full curve, poor fit] |
| CCCc1c(-c2ccc(O)cc2)nn(-c2ccc(O)cc2)c1-c1ccc(O)cc1 | inconclusive: 63.1 µM [inhibitor, partial curve, poor fit] and inconclusive: 39.8 µM [inhibitor, full curve, poor fit] |
| Cc1cccc(C)c1NC(=O)C(C)N (configuration not stated) | inactive |
| Cc1noc(C)c1C(=O)N1CCC[C@@]2(CCN(C(c3ccccc3)c3ccccc3)C2)C1 | inconclusive: 15.8 µM [inhibitor, full curve] |
| CC(C)c1c(O)ccc2c1CCC1[C@@](C)(C=O)CCC[C@@]21C (some centres not stated) | inconclusive: 44.7 µM [inhibitor, partial curve] |
| CO/N=C(\C(=O)N[C@@H]1C(=O)N2C(C(=O)O)=C(CSc3nnnn3C)CS[C@H]12)c1csc(N)n1 | inactive |
| C/C=C(/CC[C@@H](C)[C@H]1CC[C@H]2C3=CC[C@H]4[C@H](C)[C@@H](O)CC[C@]4(C)[C@H]3CC[C@]12C)C(C)C | inactive |
| CC(C(=O)O)c1ccc2c(c1)[nH]c1ccc(Cl)cc12 (configuration not stated) | inconclusive: 12.6 µM [inhibitor, full curve] |
| Cc1ccc2c(c1)CN(CCNC(=O)c1c(-c3ccccc3)noc1C)CC(C)O2 (configuration not stated) | inconclusive: 89.1 µM [inhibitor, single point] |
| O=C(c1ccccc1)c1ccc(Cn2cc(-c3ccccc3)nn2)cc1 | inconclusive: 39.8 µM [inhibitor, partial curve, poor fit] |
| Cc1ccc2ccccc2[n+]1CCCCI | inconclusive: 5.01 µM [inhibitor, partial curve, poor fit] |
| COc1ccccc1N1CCN(CCN2C(=O)c3ccccc3C(C)(C)C2=O)CC1 | inactive |
| O=C(c1ccccc1C(F)(F)F)N1CCOc2c(cc(-c3nc4ccccc4s3)cc2OC2CCOC2)C1 (configuration not stated) | inactive |
| COc1ccccc1N1CCN(c2nc(CNC(=O)C3CCOC(C)(C)C3)nc3ccccc23)CC1 (configuration not stated) | inconclusive: 15.8 µM [inhibitor, partial curve] |

| Structure (SMILES) | Potency |
| --- | --- |
| C[C@H](CCC(=O)O)[C@H]1CC[C@H]2[C@@H]3[C@H](O)C[C@@H]4C[C@H](O)CC[C@]4(C)[C@H]3C[C@H](O)[C@]12C | inconclusive: 89.1 µM [inhibitor, partial curve, poor fit] |
| c1csc(CNc2nc(CN3CCCC(c4nc5ccccc5o4)C3)nc3ccccc23)c1 (configuration not stated) | inconclusive: 39.8 µM [inhibitor, single point] |
| CN(C)CC(C)(O)c1ccc2c(c1)CN(C(=O)c1ccc(-n3cccn3)cc1)CCO2 (configuration not stated) | inactive |
| O=S1(=O)CCO[C@H]2Cc3ccccc3[C@H]2N1Cc1ccc(F)cc1 | inconclusive: 2 µM [inhibitor, partial curve, poor fit] |
| Cc1ccnc2c(N)cccc12 | inconclusive: 79.4 µM [inhibitor, single point] |
| O=C(NCc1cccnc1)[C@@H]1CC=C[C@@H]2CCN(Cc3ccc(Cl)c(Cl)c3)C(=O)[C@@H]21 | inconclusive: 0.158 µM [inhibitor, full curve, poor fit] |
| CC(=O)C[C@H]1c2cc(C(F)(F)F)ccc2S(=O)(=O)N1Cc1ccccc1 | inconclusive: 11.2 µM [inhibitor, full curve, poor fit] |
| COc1cc(N)c(Cl)cc1C(=O)OCCCN1CCCCC1 | inconclusive: 89.1 µM [inhibitor, partial curve] |
| N=C(N)c1ccc(OCCCOc2ccc(C(=N)N)cc2Br)c(Br)c1 | inactive |
| CC(=O)Oc1cc2c(c(C)c1OC(C)=O)CC=C1[C@]3(C)CC[C@]4(C)CC[C@@](C)(C(=O)O)CC4[C@]3(C)CC[C@]12C (some centres not stated) | inconclusive: 25.1 µM [inhibitor, partial curve] |
| CC[C@@H]1/C=C(\C)C[C@H](C)C[C@H](OC)[C@H]2O[C@@](O)(C(=O)C(=O)N3CCCC[C@H]3C(=O)O[C@H](/C(C)=C/[C@@H]3CC[C@@H](Cl)[C@H](OC)C3)[C@H](C)[C@@H](O)CC1=O)[C@H](C)C[C@@H]2OC | inactive |
| COc1cc(C(=O)N(Cc2cc3ccc(C)cc3nc2N(C)C)C2CC2)cc(OC)c1OC | inconclusive: 44.7 µM [inhibitor, partial curve] |
| O=C(O)[C@H](O)c1ccccc1 | inactive |
| Nc1nc2c(ncn2[C@@H]2O[C@H](COP(=O)(O)OP(=O)(O)OP(=O)(O)O)[C@@H](O)C2O)c(=O)[nH]1 (some centres not stated) | inactive |
| CCOC(=O)C1CCCN(C(=O)c2cnn(-c3nccc(-c4cc(C)sc4C)n3)c2C)C1 (configuration not stated) | inconclusive: 44.7 µM [inhibitor, partial curve] |
| COc1ccc(NC(=O)N2CC3(CCN(C(=O)c4cc(C(F)(F)F)cc(C(F)(F)F)c4)CC3)C2)cc1 | inconclusive: 0.126 µM [inhibitor, full curve, poor fit] |
| CCC1CN(CCNC(=O)c2ccc(N3CCOCC3)cc2)Cc2cc(OC)ccc2O1 (configuration not stated) | inconclusive: 39.8 µM [inhibitor, partial curve, poor fit] |
| CC(O)CO (configuration not stated) | inconclusive: 0.631 µM [inhibitor, full curve, poor fit] |
| COc1ccc2[nH]cc(CCNc3cc(-c4ccccc4C)ncn3)c2c1 | inconclusive: 63.1 µM [inhibitor, partial curve, poor fit] |

| Structure (SMILES) | Potency |
| --- | --- |
| Cc1ncc(Cc2ccccc2)c(C2CCN(S(=O)(=O)C[C@]34CC[C@H](CC3=O)C4(C)C)CC2)n1 | inconclusive: 39.8 µM [inhibitor, partial curve] |
| OC1(c2cccnc2)CCN(Cc2ccc3c(c2)CN(Cc2ccc(Cl)cc2)CCO3)CC1 | inconclusive: 39.8 µM [inhibitor, single point] |
| COc1ccccc1C(=O)N[C@@H]1c2ccccc2C2(CCN(Cc3c(O)cccc3OC)CC2)[C@H]1O | inactive |
| CN1CCC(=C2c3ccccc3CCc3cccnc32)CC1 | inactive |
| Nc1nc2ccc(OC(F)(F)F)cc2s1 | inconclusive: 28.2 µM [inhibitor, partial curve, poor fit] and inconclusive: 50.1 µM [inhibitor, partial curve] |
| Cc1nn(C)cc1CNc1nc(C)c(-c2ccn(CC3COc4ccccc4O3)n2)s1 (configuration not stated) | inconclusive: 0.398 µM [inhibitor, full curve, poor fit] |
| N#Cc1cc2c(OCC(O)CN3CCN(C(c4ccccc4)c4ccccc4)CC3)cccc2[nH]1 (configuration not stated) | inconclusive: 35.5 µM [inhibitor, partial curve, poor fit] and inconclusive: 31.6 µM [inhibitor, partial curve, poor fit] |
| C[C@@H](CSc1ccccc1)CN1CC[C@H](O)CCC1=O | inconclusive: 25.1 µM [inhibitor, partial curve, poor fit] |
| NC1=NC2C(N=C(Br)N2[C@@H]2O[C@H]3COP(=O)(O)O[C@@H]3[C@@H]2O)C(=O)N1 (some centres not stated) | inconclusive: 3.55 µM [inhibitor, partial curve, poor fit] |
| Cc1cnc(SCC2CCCO2)nc1C1CCCN(C(=O)c2ccc(S(N)(=O)=O)cc2)C1 (configuration not stated) | inconclusive: 100 µM [inhibitor, single point] |
| COc1ccccc1-c1cc(N(C)Cc2ccco2)ncn1 | inconclusive: 100 µM [inhibitor, partial curve, poor fit] |
| Cn1c(=O)c(-c2cccc(Cl)c2)nc2cncnc21 | inconclusive: 50.1 µM [inhibitor, partial curve] |
| COc1ccc(NC(=O)N2CC[C@@]3(CCCN(C(=O)c4cc(C(F)(F)F)cc(C(F)(F)F)c4)C3)C2)cc1 | inconclusive: 44.7 µM [inhibitor, partial curve, poor fit] |
| O=C(c1cccc(N2CCCC2=O)c1)N1CCC(Oc2cccc(CN3CCN(c4ccccn4)CC3)c2)CC1 | inactive |
| CCOC(=O)O[C@]1(C(=O)COC(=O)CC)CC[C@H]2[C@@H]3CCC4=CC(=O)C=C[C@]4(C)[C@H]3[C@@H](O)C[C@@]21C | inconclusive: 35.5 µM [inhibitor, single point] |
| Cc1ccc(C(=O)Nc2cccc(-c3nc(CNC(=O)[C@@H]4C[C@@H](C)NC(=S)N4)c(C)o3)c2)s1 | inconclusive: 89.1 µM [inhibitor, single point] |
| CCC1(C2CCN(Cc3cccc4ccccc34)CC2)NC(=O)N(Cc2ccc3c(c2)OCO3)C1=O (configuration not stated) | inconclusive: 3.98 µM [inhibitor, full curve, poor fit] |
| Cc1noc(C)c1-c1ccc2ncnc(NCc3ccccc3)c2c1 | inconclusive: 79.4 µM [inhibitor, partial curve, poor fit] |
| COC(=O)[C@]12CCC(C)(C)C[C@@H]1[C@@H]1C(=O)C=C3[C@@]4(C)C=C(C#N)C(=O)C(C)(C)[C@@H]4CC[C@@]3(C)[C@]1(C)CC2 | inconclusive: 3.16 µM [inhibitor, full curve, poor fit] |
